Laboratory results published in article PMC4314665, “Diversity of two-component systems: insights into the signal transduction mechanism by the Staphylococcus aureus two-component system GraSR” (F1000Research, 2014).
Like-named read-outs stand apart in the source and are kept apart here. These are yes or no findings as the source states them, for the method shown. Some binding calls cover weakened binding; strength is not graded here. For some of these results: Tags and fused reporters may be left off the sequences shown.

By UniProt entry, the sequences of proteins in these tests, tags left out. Where a name states a change or a piece, a line headed by the entry shows the natural chain unless it says otherwise. Residues count along the entry.
UniProt Q9KWJ5: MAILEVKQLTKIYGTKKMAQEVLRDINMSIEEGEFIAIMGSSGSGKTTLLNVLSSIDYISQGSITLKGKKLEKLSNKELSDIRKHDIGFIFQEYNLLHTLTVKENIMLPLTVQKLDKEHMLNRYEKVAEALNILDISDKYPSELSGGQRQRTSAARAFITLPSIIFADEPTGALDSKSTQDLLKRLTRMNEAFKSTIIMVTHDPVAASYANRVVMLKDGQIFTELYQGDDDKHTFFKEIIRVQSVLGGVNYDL
UniProt Q99VW1: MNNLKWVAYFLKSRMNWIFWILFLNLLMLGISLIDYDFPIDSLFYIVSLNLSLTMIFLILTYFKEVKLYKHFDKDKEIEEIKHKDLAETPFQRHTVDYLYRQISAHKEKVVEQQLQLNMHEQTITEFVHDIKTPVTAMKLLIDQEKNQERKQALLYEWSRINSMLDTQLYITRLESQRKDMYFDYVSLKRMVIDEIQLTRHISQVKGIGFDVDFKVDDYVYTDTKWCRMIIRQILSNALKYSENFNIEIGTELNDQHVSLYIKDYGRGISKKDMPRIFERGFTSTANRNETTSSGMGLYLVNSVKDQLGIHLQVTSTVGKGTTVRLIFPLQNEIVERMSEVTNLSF
UniProt P02769, residues 25-607: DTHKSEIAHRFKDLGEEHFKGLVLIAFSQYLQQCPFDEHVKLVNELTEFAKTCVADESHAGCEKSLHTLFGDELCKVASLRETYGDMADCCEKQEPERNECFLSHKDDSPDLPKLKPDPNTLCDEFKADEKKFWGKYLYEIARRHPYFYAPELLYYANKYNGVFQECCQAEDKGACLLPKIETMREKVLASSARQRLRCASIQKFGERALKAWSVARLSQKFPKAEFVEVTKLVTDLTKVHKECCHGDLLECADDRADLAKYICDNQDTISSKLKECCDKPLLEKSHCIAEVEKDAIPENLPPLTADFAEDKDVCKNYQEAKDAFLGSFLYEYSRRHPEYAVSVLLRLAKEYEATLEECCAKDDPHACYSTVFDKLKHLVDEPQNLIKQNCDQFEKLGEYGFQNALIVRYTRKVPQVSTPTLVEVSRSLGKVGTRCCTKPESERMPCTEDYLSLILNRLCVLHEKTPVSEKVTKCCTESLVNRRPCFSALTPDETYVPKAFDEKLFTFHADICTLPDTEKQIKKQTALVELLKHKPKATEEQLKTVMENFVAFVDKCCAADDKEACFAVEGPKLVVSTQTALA

Assays:
[1] = target: His-VraF, ATPase protein of the ABC transporter VraFG with a C-terminal His6 tag (S. aureus strain Mu50) (UniProt Q9KWJ5); experiment: pull-down; MAT-FLAG-GraX or His-VraF immobilised on Ni-NTA agarose resin; prey added (GraR at about 1:1.2, GraX at 1:2), room temperature; washes; elution fractions on SDS-PAGE; both purified
[2] = target: GraR^N (1-134) (S. aureus strain Mu50) (UniProt Q932F1); experiment: SEC; HPLC size-exclusion column TSK Gel (7.8mm x 30cm, 5um) calibrated with standard proteins; both purified
[3] = target: GST-GraS, cytoplasmic domain of histidine kinase GraS (77-346) fused to GST (S. aureus strain Mu50) (UniProt Q99VW1); experiment: pull-down; GST-fused bait immobilised on glutathione-sepharose resin in 1 x PBS; prey added at bait:prey ratios of about 1:1 to 1:2, 30 min at room temperature; five to seven washes; elution with 10 mM reduced glutathione in 50 mM Tris pH 8.0; SDS-PAGE; both purified
[4] = target: GraR, response regulator of S. aureus (S. aureus strain Mu50) (UniProt Q932F1); experiment: SEC; HPLC size-exclusion column TSK Gel (7.8mm x 30cm, 5um) calibrated with standard proteins; both purified
[5] = target: GST-GraS, cytoplasmic domain of histidine kinase GraS (77-346) fused to GST (S. aureus strain Mu50) (UniProt Q99VW1); experiment: pull-down; GST-fused bait immobilised on glutathione-sepharose resin in 1 x PBS; prey added at bait:prey ratios of about 1:1 to 1:2, 30 min at room temperature; five to seven washes; elution with 10 mM reduced glutathione in 50 mM Tris pH 8.0; SDS-PAGE; both purified; remark: listed apart in the source
[6] = target: GST-GraS^DHp-CA, DHp and CA domains of GraS (110-346) fused to GST (S. aureus strain Mu50) (UniProt Q99VW1); experiment: as above
[7] = target: GST-GraS^CA, ATP-binding domain of GraS (181-346) fused to GST (S. aureus strain Mu50) (UniProt Q99VW1); experiment: as above

## GST-GraS, cytoplasmic domain of histidine kinase GraS (77-346) fused to GST (from UniProt Q99VW1 77-346) (domain or fragment)
[1]
  binding: binds

## GST-GraS^CA, ATP-binding domain of GraS (181-346) fused to GST (from UniProt Q99VW1 181-346) (domain or fragment)
[1]
  binding: no binding

## GST-GraS^DHp-CA, DHp and CA domains of GraS (110-346) fused to GST (from UniProt Q99VW1 110-346) (domain or fragment)
[1]
  binding: no binding

## GraR^N (1-134) (from UniProt Q932F1 1-134) (domain or fragment)
[2]
  binding: no binding

## bovine serum albumin (from UniProt P02769 25-607)
[3]
  binding: no binding (tested: ratio of 1:1)

B1: GraR, response regulator of S. aureus (protein, UniProt Q932F1 1-224)
chain: MQILLVEDDNTLFQELKKELEQWDFNVAGIEDFGKVMDTFESFNPEIVILDVQLPKYDGFYWCRKMREVSNVPILFLSSRDNPMDQVMSMELGADDYMQKPFYTNVLIAKLQAIYRRVYEFTAEEKRTLTWQDAVVDLSKDSIQKGDDTIFLSKTEMIILEILITKKNQIVSRDTIITALWDDEAFVSDNTLTVNVSRLRKKLSEISMDSAIETKVGKGYMAHE
[4]
  binding: no binding

B2: GraX, auxiliary protein (tagless) (natural protein)
chain: MKPKVLLAGGTGYIGKYLSEVIENDAELFAISKYPDNKKTDDVEMTWIQCDIFHYEQVVAAMNQIDIAVFFIDPTKNSAKITQSSARDLTLIAADNFGRAAAINQVKKVIYIPGSRYDNETIERLGAYGTPVETTNLVFKRSLVNVELQVSKYDDVRSTMKVVLPKGWTLKNVVNHFIAWMGYTKGTFVKTEKSHDQFKIYIKNKVRPLAVFKIEETADGIITLILLSGSLVKKYTVNQGKLEFRLIKESAVVYIHLYDYIPRLFWPIYYFIQAPMQKMMIHGFEVDCRIKDFQSRLKSGENMKYTK
notes: Auxiliary protein GraX, S. aureus strain Mu50, full length graX gene; Cloned in pET26b between NdeI and HindIII; Dimers seen by SDS-PAGE without DTT; also called untagged GraX; source: E. coli BL21(DE3), purified (SP-Sepharose cation exchange), to 90%
[5]
  binding: binds
[6]
  binding: binds
[7]
  binding: no binding (tested: ratio of 1:1.2 GraX:GST-GraS^CA)
[1]
  binding: binds
